Assay results as given in PubChem BioAssay AID1963319 (National Center for Advancing Translational Sciences (NCATS), 2024).
Among all 1,300 compounds or so, about 120 (9.2%) were called active. The shares of active, inactive and inconclusive entries below differ from those in the screen. The call rests on the fitted dose curve; in most records, active means well fitted activation curve with a large enough effect; inconclusive means small, poorly fitted or top-dose-only effect; inactive means flat fitted curve, though single readings scatter. A potency beside an inconclusive call is a rough fit, not a confirmed value.

Each compound was assayed against Luciferin 4-monooxygenase (Photinus pyralis) (UniProt P08659) (assay: Firefly luciferase (FLuc-C-HiBiT) SDR gain of signal screen - plus ATP). Details: purified FLuc-C-HiBiT + ATP, HiBiT complementation luminescence; series mostly up to 32.7 µM; activation (gain of signal): at the top concentration.
UniProt P08659, sequence (P08659 whole entry, looked up): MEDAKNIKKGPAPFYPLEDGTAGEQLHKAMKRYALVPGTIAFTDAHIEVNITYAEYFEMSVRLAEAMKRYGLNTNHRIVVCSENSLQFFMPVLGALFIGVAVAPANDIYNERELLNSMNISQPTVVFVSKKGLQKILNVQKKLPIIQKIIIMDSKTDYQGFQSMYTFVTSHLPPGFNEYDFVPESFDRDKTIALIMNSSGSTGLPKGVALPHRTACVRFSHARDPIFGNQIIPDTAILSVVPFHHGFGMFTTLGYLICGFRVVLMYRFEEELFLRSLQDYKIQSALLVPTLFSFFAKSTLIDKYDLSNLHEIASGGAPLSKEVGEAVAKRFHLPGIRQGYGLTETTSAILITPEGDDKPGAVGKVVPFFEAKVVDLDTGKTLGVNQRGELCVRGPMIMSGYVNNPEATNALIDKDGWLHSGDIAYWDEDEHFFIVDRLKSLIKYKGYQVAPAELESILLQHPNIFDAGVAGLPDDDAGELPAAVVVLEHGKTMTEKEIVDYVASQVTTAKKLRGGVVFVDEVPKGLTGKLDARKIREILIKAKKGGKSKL
Outline: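 FLuc-C-HiBiT at 10 nM final with 10 uM ATP, incubated with compounds >30 min at room temperature. Nano-Glo HiBiT reagent then added; after 5-10 min, complementation luminescence read on CCD imager as gain of signal.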
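Further: signal reports ligand binding via conformational change of the enzyme rather than luciferase catalysis; nearly all actives have a fitted effect of over 55% in size.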
Potency means the concentration at half of the fitted maximal effect; tags describe the fitted curve by direction and shape.
Wherever activation (gain of signal) is given: % of control where 0% means no effect.

| SMILES | Potency | activation (gain of signal) |
| --- | --- | --- |
| c1c(-c2nc(C3CCOC3)no2)sc2c1CCCC2 (stereo not given) | inconclusive: 15.7 µM [activator, partial curve] | – |
| Cc1c(C(=O)Nc2cccc(-c3nc4ccccc4s3)c2)oc2ccc(F)cc12 | – | inactive: 7.8% |
| CC(CNC(=O)C1CCN(C(=O)c2ncn3c2COC(c2ccccc2)C3)CC1)c1ccccc1 (stereo not given) | active: 1.57 µM | – |
| O=C1c2cnc(-c3cccc(C(F)(F)F)c3)nc2OCCN1CC1CC1 | inconclusive: 20.2 µM [activator, partial curve, poor fit] | – |
| COc1ccc(NC(=O)c2cccc3c2CCN3C(=O)Nc2ccc(F)cc2)c(C)c1 | active: 0.7 µM | – |
| Cc1ccccc1-c1noc(-c2ccc(NC(C)c3cnn(C)c3)nc2)n1 (stereo not given) | inconclusive: 4.42 µM [activator, partial curve] | – |
| Cc1nc(C)c(C(=O)N2CCC(Oc3ccc(-c4noc(-c5ccccc5)n4)cc3)C2)s1 (stereo not given) | – | inactive: 10.4% |
| O=C(Nc1ccc(Cl)cc1)C1CCN(C(=O)c2ncn3c2COC(c2ccccc2)C3)CC1 (stereo not given) | active: 1.11 µM | – |
| CCCNc1cc(N2CCC(CCC(=O)O)CC2)ncn1 | active: 9.89 µM | – |
| C[C@@H]1CN(c2cnc3ccccc3n2)CC[C@@]1(O)C1CCC1 | – | inactive: 16.7% |
| Cc1nn(-c2ccc(C(C)C)cc2)c(C)c1[C@@H]1C=C[C@@H](NC(=O)Nc2ccccc2)C1 | – | inactive: 15.3% [at 49.3 µM] |
| COCCN1CCNc2cc(-c3cccc(N(C)C)c3)ncc2C1 | inconclusive: 3.21 µM [activator, full curve, poor fit] | – |
| CC1(NC(=O)C2CC2)CN(Cc2nc(-c3ccccc3OCc3ccccc3)cs2)C1 | – | inactive: 12.8% [at 49.3 µM] |
| O=C1CCc2cc(NC(=O)c3n[nH]c4ccccc34)ccc2N1 | inconclusive: 12.4 µM [activator, partial curve] | – |
| COc1cccc(-c2noc(Nc3ccc4c(c3)OCCO4)n2)c1 | inconclusive: 11.1 µM [activator, partial curve, poor fit] | – |
| COC(=O)c1cccc(-c2noc(-c3ccccc3F)n2)c1 | – | inactive: 18.4% |
| Cc1cccc(C(=O)Nc2ccc(-c3nc4ccccc4s3)c(C)c2)c1 | – | inactive: 15.5% |
| Cc1cc2nn(-c3ccc(Cl)cc3)nc2cc1NC(=O)C(C)C | inconclusive: 0.221 µM [activator, full curve, poor fit] | – |
| Cc1cc2c(c(-c3nc4ccccc4s3)c1)OC(CNC(=O)CCc1cccnc1)C2 (stereo not given) | – | inactive: 8.95% |
| COc1ccc(NC(=O)c2cc3c(=O)[nH]c(C)cn3n2)cc1OC | inconclusive: 12.4 µM [activator, partial curve] | – |
| COCCN1CCC2(C1)CN(C)c1ccc(C(=O)Nc3ccc(F)cc3)cc12 (stereo not given) | inconclusive: 3.21 µM [activator, full curve, poor fit] | – |
| COc1cccc(-c2ncc3c(n2)OCCN(Cc2ccccc2)C3=O)c1 | inconclusive: 18 µM [activator, partial curve, poor fit] | – |
| Cc1ccc(-n2nc(C)c([C@@H]3C=C[C@@H](NC(=O)NCc4ccccc4)C3)c2C)cc1Cl | inconclusive: 18 µM [activator, partial curve, poor fit] | – |

| SMILES | Potency | activation (gain of signal) |
| --- | --- | --- |
| O=C(NCc1ccc2c(c1)OCO2)C1CCN(C(=O)c2ncn3c2COC(c2ccccc2)C3)CC1 (stereo not given) | inconclusive: 7 µM [activator, partial curve] | – |
| CCc1ccc(C2=CC(c3cccc(C)c3)n3c(nc4ccccc43)N2)cc1 (stereo not given) | inconclusive: 4.95 µM [activator, partial curve] | – |
| Cc1ccc(-n2ncc3c(N4CCCCC4)ncnc32)cc1Cl | active: 1.76 µM | – |
| COc1ccc(NC(=O)N2CCc3c(C(=O)N(C)Cc4ccco4)cccc32)cc1 | active: 2.48 µM | – |
| COc1cccc(Nc2nc(-c3ccccc3)no2)c1 | inconclusive: 14 µM [activator, partial curve, poor fit] | – |
| CC(=O)N1CCc2ccc(C(=O)NC3CCCCCC3)cc21 | active: 11.1 µM | – |
| COc1ccc(-c2noc([C@@H]3C[C@@H](O)CN3Cc3cc4ccccc4o3)n2)cc1 | inconclusive: 18 µM [activator, partial curve, poor fit] | – |
| Cc1ccc(Cn2cc(-c3ccncc3)cc2C(=O)O)cc1 | – | inactive: 10.9% |
| Cc1ccc(C2=CC(c3ccccc3F)n3c(nc4ccccc43)N2)cc1C (stereo not given) | inconclusive: 11.1 µM [activator, partial curve] | – |
| Cc1ccc(C2Cn3nnc(C(=O)N4CCC(C(=O)NCCc5ccccc5)CC4)c3CO2)cc1 (stereo not given) | inconclusive: 7.85 µM [activator, partial curve, poor fit] | – |
| COc1ccc(-c2cc(N3CCCC(NC(=O)c4cccs4)C3)n[nH]2)cc1 (stereo not given) | – | inactive: 13.3% |
| COc1cccc(-c2noc(Nc3ccc4c(c3)OCO4)n2)c1 | inconclusive: 11.1 µM [activator, partial curve, poor fit] | – |
| COc1cccc(C(=O)Nc2ccc(-c3nc4ccccc4s3)c(O)c2)c1 | – | inactive: 9.23% |
| Cc1ccc(CSc2nc3cccnc3n2Cc2ccc(C(=O)NCc3ccco3)cc2)cc1 | inconclusive: 9.89 µM [activator, partial curve] | – |
| Cc1ccc(-c2nc(C)c(CCNC(=O)c3cccs3)s2)cc1 | – | inactive: 9.44% |
| O=C(/C=C/c1ccccc1)Nc1cc(-c2nc3cc(Cl)ccc3o2)ccc1Cl | – | inactive: 9.6% |
| CC1CCCN(C(=O)c2cc3ccc4cccnc4c3[nH]2)C1 (stereo not given) | active: 2.48 µM | – |
| Cc1ccc(-c2cc3c(=O)n(CCNC(=O)Cc4cccc(F)c4)ccn3n2)c(C)c1 | inconclusive: 11.1 µM [activator, partial curve, poor fit] | – |
| Cc1ccc(-c2cc(C(=O)O)n(C)c2)cc1 | inconclusive: 11.1 µM [activator, partial curve, poor fit] | – |
| CNC(=O)c1cccc(-c2cnc(NC(=O)c3cn(C)cn3)c3c2CCO3)c1 | inconclusive: 20.2 µM [activator, partial curve, poor fit] | – |
| COc1ccccc1-c1nc(-c2cccc(C(=O)O)c2)no1 | active: 0.007 µM | – |
| CN1CCOc2nc(-c3cccc(OC(F)(F)F)c3)ncc2C1=O | inconclusive: 18 µM [activator, partial curve, poor fit] | – |
